Binding signal data for 22 molecules are collected here from publication PMC12136788.

The list shows a part of the results.

Sequences and labels used below:
B1: 119145625_119146788_1267_3pUTR_ENSG00000110395_ENST00000264033|human|control|control (ssRNA)
RNA: GGGAGUUCUACAGUCCGACGAUCUGUCUGGAGAAUGUUCCCAUCAGCAGUAACAUACCCAAUAGCCCACUGACCCAGACGAGUACAGCUCAGCCGGAAGAUAUAACUGCCAGGUUUGUGAAUGAAUUUCUGGAGCCGAGCUUUCAACAGAGGAUUGAGCAUCA
B2: chr8:104447970:104447971:+_ENSG00000164934_ENST00000297579|hu_hu|hu_hu_hu_mus_False|8_88 (ssRNA)
RNA: GGGAGUUCUACAGUCCGACGAUCAUACACUUCCCUGCUUCGGCUCUUGUCUACAGGAAAGAUUCUAAUAGACUUAUCAAAGCUGGCAGACACAAAUUCCUUCCCAGUGGGAGAGUAGUCCACAUCAAGCACUGCAGACACGUGCAACAGAGGAUUGAGCAUCA
B3: chr2:91613138:91613139:+_ENSMUSG00000040506_ENSMUST00000045705|mus_mus|FALSE|FALSE (ssRNA)
RNA: GGGAGUUCUACAGUCCGACGAUCCUGCUGUCUCAGUACAGAAAGCAAACUCACUGAGGAGGCACUGGUCCUCGGUGGGGGCAUAGAUUCUACCUCAGAACGAGAGUUCAGAGUGAGUACUGUCCGGGUCCACUCAGAACCUGUCAACAGAGGAUUGAGCAUCA
B4: chr1:50642785:50642786:+_ENSG00000162374_ENST00000371827|hu_hu|FALSE|FALSE (ssRNA)
RNA: GGGAGUUCUACAGUCCGACGAUCAGUGUUGAUGGCUUUCUCUGCAUCCUUUGGAUCAAUAUAGUUAACAAAUCCAUACCCUAAACUCUGUCCUGUAAUUUUGUCUCUCACAAGUUUGCAGGAUUCUAUUUCACCAAUGCUCCCCAACAGAGGAUUGAGCAUCA
B5: chr14:15598107:15598108:+_ENSMUSG00000021733_ENSMUST00000057015|perfect_dup|FALSE|FALSE (ssRNA)
RNA: GGGAGUUCUACAGUCCGACGAUCUUGCCCAGCAAACAAUGAAUAGGCAAUCCCAGUUAAUGACGCUCCAAAAAGAGACUCUAUUGCACUUAUUCUGCCUUCUGUAGCUUCUCCAAGCAGCCCUCCAAAAGUGAUUACAGGAGACAACAGAGGAUUGAGCAUCA
B6: chr7:141438946:141438947:+_ENSG00000106028_ENST00000265304|hu_mus|hu_hu_hu_mus_True|38_78 (ssRNA)
RNA: GGGAGUUCUACAGUCCGACGAUCGACGAAAUACCUGUAACACAGGUCUUCGAAACAUUCUAUUUUCUUUUCUUACAACCUAAUCUUUAGGCUUUUCCUGACGAUCUGAAAGAAAAGAGAAAAAUGAUAAAUCAAGAAACUACACAACAGAGGAUUGAGCAUCA
B7: chr3:55862657:55862658:-_ENSMUSG00000027799_ENSMUST00000029374|mus_hu|FALSE|FALSE (ssRNA)
RNA: GGGAGUUCUACAGUCCGACGAUCUGAUGAUUCCAGGCAGAGCUGAGCAUCAGUGGCCUUAGCAUUAUAUGUAAAGGCAAUGCUACUUGCAAGUUUCCCAUCAUAUAACACCUGUUUAUGAUGUUCUGCCAAAUGAAUAUCACUCAACAGAGGAUUGAGCAUCA
B8: chr19:8913615:8913616:-_ENSMUSG00000071658_ENSMUST00000096259|mus_hu|mus_mus_mus_hu_False|68_108 (ssRNA)
RNA: GGGAGUUCUACAGUCCGACGAUCAGGGGGGCACCAACUUCUGCCUGAAAUGGGUGCCCCACCCAGUCAGGACUUGGAGCUGAAAGUAUCUGAUGCAGAAGCAGUGACUAUACGAAAGGAGGCCCCUGGGGAGGGCCAGGCCAGCAACAGAGGAUUGAGCAUCA
B9: chr2:47388980:47388981:-_ENSG00000143933_ENST00000272298|hu_mus|FALSE|FALSE (ssRNA)
RNA: GGGAGUUCUACAGUCCGACGAUCUUCAUCUGUUAACUUCUCGCCAAGGUUUGUCAUCACAUGGCGAAGCUCUGCUGCACUAAUAUAGCCAUUGCCAUCCUUAUCAAACACACGGAAUGCUUCUCUAAUCUCUUCUUCACUGUCCAACAGAGGAUUGAGCAUCA
B10: chr10:88205819:88205820:+_ENSMUSG00000060904_ENSMUST00000116234|mus_mus|FALSE|FALSE (ssRNA)
RNA: GGGAGUUCUACAGUCCGACGAUCGUUGGCUCACAGGCGCUGACGUGAAUGGGCUCACUGUCUGCUUUUCAGGGUUUCAACUAACCAUUCCAUUGCCUCAUCAAGGCCAGUGCCUUUGGUUGCUGAAGUUUUAAAGAUCUGCCACAACAGAGGAUUGAGCAUCA
B11: chr12:493273:493274:-_ENSG00000073614_ENST00000399788|hu_mus|hu_hu_hu_mus_False|28_48 (ssRNA)
RNA: GGGAGUUCUACAGUCCGACGAUCUUUUCUCUCCACCACAGGGAUCUUCAAUGUAGAUCCUUGAAGUUCCCAAAAUUUUGCCAGUUGAUCCAAGAAAUCCAAUCUUACUCUGGUCAUUGCCUCAAGUUCAUUCAGGCGCUGGACCAACAGAGGAUUGAGCAUCA
B12: chr5:145543945:145543946:-_ENSG00000133706_ENST00000545646|hu_hu|hu_hu_hu_mus_True|68_68 (ssRNA)
RNA: GGGAGUUCUACAGUCCGACGAUCCUGAACGGCCAGUGGUGGGAAAUAAUCAAGCCAGUGCUCUGCUUCAGAAAAUUUCACUAUGUCGUCAUCAGAGAGCCCAAGGGAUUUCAUAAUGUCCCACUGGUACUUAGAAGAUCCUGCCAACAGAGGAUUGAGCAUCA
B13: 97822651_97822771_3227_CDS_ENSG00000164715_ENST00000297293|human|control|control (ssRNA)
RNA: GGGAGUUCUACAGUCCGACGAUCGUCCGGGGUUUCCAGGGACGGCUCAGAGGCUGGGAAGGGUGCUGACAAGCUGUCCUCCAGGAGGCUGUCCUGACUGGUUGAGUCCGAGGAGAGGGCAGACACCAAGCCUGCUUCUUUUGCCAACAGAGGAUUGAGCAUCA
B14: chr19:56882518:56882519:-_ENSMUSG00000035173_ENSMUST00000118592|mus_mus|motif|central (ssRNA)
RNA: GGGAGUUCUACAGUCCGACGAUCCUGAGACAGCUGCUUAAUUUUGUUAGUGUUUUUCUCCAAUUCCUUACUUGCAUCUCGGAGUUUCCUCUCAAGGGUUUCUUUUUCCUUUCGCAGGUCUAGAGCCUCCUUCUCGCCUCUCACCAACAGAGGAUUGAGCAUCA
B15: chr2:100011259:100011260:+_ENSG00000158417_ENST00000289371|hu_mus|motif|central (ssRNA)
RNA: GGGAGUUCUACAGUCCGACGAUCGUAGUCCUGUCUGUAUUUUGUAAAGGCAUCAAAUAAGUGAUAAAUAAUUUCUGCACGGAAGAUUCUAACUCCCAAACUAUCAGCCAUCUCUUGUGCGUCCCGUUCAAUUCUUACAUCAAACAACAGAGGAUUGAGCAUCA
B16: chr1:245023758:245023759:-_ENSG00000153187_ENST00000283179|hu_mus|FALSE|FALSE (ssRNA)
RNA: GGGAGUUCUACAGUCCGACGAUCAGCAAAACUCUCCAUAGUAAGGGAAGAAGCACUCAGACGGUCUCUCGAGAUUUUAAAAUGCAGAUCACAAUUAUAAGUAUCAAGACAAACCACUGUGUCAUCGAAGUGUUCGUCUUCUUCCAACAGAGGAUUGAGCAUCA
B17: chr1:163112212:163112213:-_ENSG00000143248_ENST00000313961|hu_hu|hu_hu_hu_mus_False|28_28 (ssRNA)
RNA: GGGAGUUCUACAGUCCGACGAUCUUUUAUUAUCAGUAAGAGUGAGUUACAUACUAGGCAAAGUAUUGGAUACAAUAAUCAGGAAACAAACACUAUUGGUCCAGAAUUUAAAAUAUAAUGAGCGAAGUGCUGGCACAGGACUUACAACAGAGGAUUGAGCAUCA
B18: 16774833_16775393_925_3pUTR_ENSG00000169895_ENST00000380155|human|control|control (ssRNA)
RNA: GGGAGUUCUACAGUCCGACGAUCCUAGUUGCUCCAUUUCUUUCCUUAGAUCUUCCUGAUUUAGGUUACAGGCAUCGAAGGCAUCACUGACAAACUCAGAAACACCUGGGCUAGUAGAAAUUUCUUCCUCAUCCUCUUGAGUUUCAACAGAGGAUUGAGCAUCA
B19: chr1:163117127:163117128:-_ENSG00000143248_ENST00000313961|hu_mus|hu_hu_hu_mus_False|78_78 (ssRNA)
RNA: GGGAGUUCUACAGUCCGACGAUCUGCUACAAAGGAUGUAACUCAACUCACAGGGCAUGAUUUCAUAGCCUGACCAGAUGACUACUUGAUUAGCUCCUUAUAAAAUUCAGAGCGCACAAAGCGGGGCAGAGAAUCCUUCUCCAUCAACAGAGGAUUGAGCAUCA
B20: chr15:38448799:38448800:-_ENSMUSG00000037458_ENSMUST00000152833|mus_hu|FALSE|FALSE (ssRNA)
RNA: GGGAGUUCUACAGUCCGACGAUCGCAGAAAUACCCAAGGCGGCCUGGGCCAUAGGCUGCGGGAACGACUUGGGGGUAAAAGCGCGGCACCGACACCAGCUGUGUGCAGCAGUGGCGGCGGCGGCCGAAGGAGAAAUAGAACAGCAACAGAGGAUUGAGCAUCA
B21: chr18:35732242:35732243:+_ENSMUSG00000037236_ENSMUST00000166793|perfect_dup|FALSE|FALSE (ssRNA)
RNA: GGGAGUUCUACAGUCCGACGAUCACGACUUCCAUGGUCAUAAUCAAGCACUGGGUUGAGACUAGGACCACGAUCAUCAAAACUAUCUCUUCUAAAGUGCCUUUUUUCUUCCCAAUCAUCCCUAGGUACUCUGUAUGGUGGCUCCAACAGAGGAUUGAGCAUCA
B22: chr1:156905105:156905106:-_ENSG00000132694_ENST00000368194|hu_hu|FALSE|FALSE (ssRNA)
RNA: GGGAGUUCUACAGUCCGACGAUCGAGGGAGGGAGUAGCUUGGCAGCAAGCUGUGGAGGGCAGGCUCUGGAGCCAGGUGGGAUGGGGAGCCAGAAGACCUUCCCACUCACAGGGACAGGAACACUCAGGCCUGGCUCCCGCUUUCAACAGAGGAUUGAGCAUCA

In this assay the target is T1, UNK ZnF1-3 (human, UniProt Q9C0B0 31-174).
T1 sequence: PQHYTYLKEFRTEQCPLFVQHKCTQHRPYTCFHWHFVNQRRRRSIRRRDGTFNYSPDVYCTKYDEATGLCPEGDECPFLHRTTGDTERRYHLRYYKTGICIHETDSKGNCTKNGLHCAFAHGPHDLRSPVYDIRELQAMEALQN
The assay can be described thus: nsRBNS (natural sequence RNA bind-n-seq); RBNS binding buffer (assumed for nsRBNS): 25 mM Tris pH 7.5, 150 mM KCl, 3 mM MgCl2, 0.01% Triton X-100, 500 ug/ml BSA, 20 U/ml SUPERase-In, 4 C; UNK is unkempt and MSI1 is Musashi-1; names of the RNAs are library labels; protein concentration not given here; high values mean tight binding.
Take B1: the binding signal came out at 0.905 enrichment R.
With B2 the figure was 0.99 enrichment R; with B3, 0.758 enrichment R.
With B4 the figure was 0.631 enrichment R; with B5, 1.34 enrichment R.
With B6 the figure was 0.487 enrichment R; with B7, 1.29 enrichment R; with B8, 1.22 enrichment R.
In turn, B9 yielded a binding signal of 0.699 enrichment R.
B10 yielded a binding signal of 0.635 enrichment R.
With B11, the binding signal turned out to be 1.05 enrichment R.
With B12 the figure was 1.39 enrichment R; with B13, 0.95 enrichment R.
The result for B14 reads 0.421 enrichment R.
With B15 the figure was 2.98 enrichment R; with B16, 2.25 enrichment R; with B17, 2.04 enrichment R.
B18 showed a binding signal of 0.904 enrichment R.
The result for B19 reads 0.969 enrichment R; that for B20, 0.728 enrichment R; that for B21, 1.07 enrichment R.
With B22 the figure was 1.21 enrichment R.
